# Measurements as given in PubChem BioAssay AID504332 (National Center for Advancing Translational Sciences (NCATS), 2011).
# In all, about 350,000 compounds went through this assay and about 31,000 (8.9%) were called active. The shares of active, inactive and inconclusive entries below differ from those in the screen. Calls follow the shape of the dose curve; as a rule, active = well fitted inhibition curve with a large enough effect; inconclusive = small, poorly fitted or top-dose-only effect; inactive = no such curve, though single readings can be large or run the other way. Potencies of inconclusive entries are doubtful fits and often do not repeat.
# Molecular target: Histone-lysine N-methyltransferase EHMT2 (Homo sapiens) (UniProt Q96KQ7)
# Sequence of UniProt Q96KQ7 (Q96KQ7 whole entry, looked up): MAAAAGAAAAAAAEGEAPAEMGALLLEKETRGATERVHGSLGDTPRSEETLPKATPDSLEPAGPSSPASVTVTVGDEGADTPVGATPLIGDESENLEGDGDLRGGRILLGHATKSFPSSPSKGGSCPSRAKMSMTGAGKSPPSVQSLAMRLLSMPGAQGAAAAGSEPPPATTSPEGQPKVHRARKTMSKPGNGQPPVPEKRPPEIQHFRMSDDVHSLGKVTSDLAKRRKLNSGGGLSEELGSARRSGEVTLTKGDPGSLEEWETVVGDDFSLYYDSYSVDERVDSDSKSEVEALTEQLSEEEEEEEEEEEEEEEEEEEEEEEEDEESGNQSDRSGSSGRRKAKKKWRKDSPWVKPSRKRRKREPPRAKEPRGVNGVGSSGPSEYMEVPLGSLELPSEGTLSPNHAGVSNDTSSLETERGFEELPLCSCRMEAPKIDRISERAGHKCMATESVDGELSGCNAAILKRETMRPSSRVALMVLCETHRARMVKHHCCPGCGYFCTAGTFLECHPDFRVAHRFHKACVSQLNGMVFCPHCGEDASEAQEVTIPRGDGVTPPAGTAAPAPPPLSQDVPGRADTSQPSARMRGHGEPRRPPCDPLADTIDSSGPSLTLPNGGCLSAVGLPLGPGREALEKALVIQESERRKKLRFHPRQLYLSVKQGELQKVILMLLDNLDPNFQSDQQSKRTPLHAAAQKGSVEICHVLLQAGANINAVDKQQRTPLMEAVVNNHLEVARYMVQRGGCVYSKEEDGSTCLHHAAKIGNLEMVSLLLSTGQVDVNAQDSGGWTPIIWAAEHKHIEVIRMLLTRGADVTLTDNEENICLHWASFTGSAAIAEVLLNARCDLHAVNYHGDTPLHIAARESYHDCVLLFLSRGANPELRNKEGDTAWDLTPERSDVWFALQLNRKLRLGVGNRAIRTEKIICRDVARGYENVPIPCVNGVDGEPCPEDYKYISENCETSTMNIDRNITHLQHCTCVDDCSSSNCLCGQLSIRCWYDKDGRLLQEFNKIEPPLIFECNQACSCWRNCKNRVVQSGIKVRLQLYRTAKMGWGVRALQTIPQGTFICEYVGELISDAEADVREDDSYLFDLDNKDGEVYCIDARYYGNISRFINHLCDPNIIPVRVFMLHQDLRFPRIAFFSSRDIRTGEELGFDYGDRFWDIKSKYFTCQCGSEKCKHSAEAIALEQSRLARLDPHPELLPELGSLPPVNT
# Test: qHTS Assay for Inhibitors of Histone Lysine Methyltransferase G9a; also: nearly all actives have a fitted effect of over 75% in size
# Details: G9a H3K9 monomethylation, AlphaScreen, 2 h; activity, negative = inhibition: at 59 µM (top of the series) unless noted
# Outline: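 AlphaScreen detection with an anti-monomethyl H3K9 antibody quantified product after a 2 h room-temperature reaction containing 500 nM biotinylated H3K9 peptide, 20 µM SAM and 20 nM enzyme, which had been preincubated 15 min with compound.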
# % is scaled to controls: 0 for no effect and ±100 for the full control effect; potency is read from the fitted curve at half-maximal effect; tags tell the direction and shape of the fitted curve.
SMILES,Potency,"activity, negative = inhibition"
CC(C)Cn1c(=O)oc2ccccc21,inactive,
O=C(N/N=C/c1cc(Br)c(Br)o1)c1cc2ccccc2o1,"inconclusive: 89.1 µM [inhibitor, single point]",
O=C(Nc1ccc(N2CCOCC2)cc1)c1ccncc1,inactive,
CCOC(=O)C1=C(C)N=c2s/c(=C\c3cccn3C)c(=O)n2C1c1cccc(OC)c1OC (centres undefined),,inconclusive: -79.6% [inhibitor]
Cn1c(NCCCN2CCOCC2)nc2c1c(=O)n(Cc1ccc(Cl)cc1Cl)c(=O)n2C,"inconclusive: 50.1 µM [inhibitor, partial curve]",
CC1=C(C)[N+](=O)C2(O)CCCCC2(C)N1[O-] (centres undefined),inactive,
CCN(CC)C(=O)C1CCCN(C/C=C/c2ccccc2[N+](=O)[O-])C1 (centres undefined),active: 35.5 µM,
Cc1cccc(NC(=S)NNC(=O)CCn2cc(C)cn2)c1,"inconclusive: 39.8 µM [inhibitor, partial curve, poor fit]",
CC(C)[C@@H]1NC(=O)c2cc([N+](=O)[O-])cc(I)c2NCCC[C@@H](C(=O)NC(CC(=O)O)C(N)=O)NC(=O)[C@H](CO)NC1=O (some centres undefined),inactive,
O=C(Cc1ccccc1[N+](=O)[O-])OCC(=O)c1c[nH]c2ccccc12,inactive,
CCC(C(=O)NCc1ccco1)N(C(=O)CNS(=O)(=O)c1ccc(C)cc1)c1ccccc1F (centres undefined),inactive,
COc1ccc(C2CC(c3ccccc3C)n3nc(N)nc3N2)cc1 (centres undefined),"inconclusive: 39.8 µM [inhibitor, single point]",
O=C(COc1ccc(F)cc1)Nc1cc(S(=O)(=O)N2CCCCC2)ccc1N1CCCCC1,active: 2 µM,
CCOC(=O)C1=C(CS(=O)(=O)c2ccc(C)cc2)NC(=O)NC1c1ccc(C(C)C)cc1 (centres undefined),inactive,
CCCOc1ccc(N2C(=O)CC(N3CCCC(C(=O)N4CCCC4)C3)C2=O)cc1 (centres undefined),,inconclusive: -75.4% [inhibitor]
C(=N\N1CCN(C2c3ccccc3-c3ccccc32)CC1)/c1ccccn1,,inactive: 47.7% [at 0.501 µM]
Cc1oc2ncn(C)c(=O)c2c1C(=O)NC(C)c1ccccc1 (centres undefined),inactive,
COc1ccccc1NC(=O)CC(NCc1ccccc1)C(=O)O (centres undefined),"inconclusive: 31.6 µM [inhibitor, single point]",
COc1ccccc1NCc1cccn1-c1nnc(N2CCOCC2)s1,inactive,
Cc1ccc(N2C(=O)CC(Sc3ccccc3C(=O)O)C2=O)c([N+](=O)[O-])c1 (centres undefined),active: 0.355 µM,
CCCCn1c(N)c(N(CC(C)C)C(=O)CCS(=O)(=O)c2ccc(C)cc2)c(=O)[nH]c1=O,inactive,
O=C(Cn1cccc1)N1CCN(c2ccc(F)cc2)CC1,"inconclusive: 89.1 µM [inhibitor, single point]",
COc1ccc(N2CCN(C(CNC(=O)C(=O)NCCCN(C)C)c3cccnc3)CC2)cc1 (centres undefined),inactive,
CCOC(=O)c1c(C)[nH]c(C)c1C(=O)COC(=O)c1ccc(S(=O)(=O)C(F)F)cc1,"inconclusive: 0.251 µM [inhibitor, partial curve, poor fit]",
CCn1cc(S(=O)(=O)CC(=O)Nc2cccc(C)c2)c2ccccc21,"inconclusive: 0.708 µM [inhibitor, partial curve, poor fit]",

SMILES,Potency,"activity, negative = inhibition"
COc1ccccc1C(=O)NCCn1cc(SCC(=O)Nc2cc(C)on2)c2ccccc21,"inconclusive: 31.6 µM [inhibitor, single point]",
O=C1c2ccccc2C(=O)N1CCCCCCc1ccccc1,,inactive: -0.559% [at 0.501 µM]
Cc1ccc(C(=O)Nc2nnc(-c3cccs3)s2)cc1C,,inactive: -1.27% [at 12.7 µM]
CN(CC(=O)NCCc1ccc(F)cc1)Cc1ccccc1,,inactive: 8.73% [at 12.7 µM]
Cc1cc(OCC(=O)Nc2ccc(N3CCN(C)CC3)cc2)ccc1Cl,"inconclusive: 63.1 µM [inhibitor, single point]",
O=C(N/N=C/c1ccc(C(F)(F)F)cc1)c1ccc(O)cc1,inactive,
COc1cc(CNC2CCCc3ccccc32)cc(OC)c1OC (centres undefined),"inconclusive: 31.6 µM [inhibitor, partial curve, poor fit]",
CCCOc1cccc(C2C(C(=O)c3cc4ccccc4o3)=C(O)C(=O)N2c2cc(C)on2)c1 (centres undefined),,inactive: -2.3% [at 0.501 µM]
O=C(CCCN1C(=O)/C(=C\c2cccs2)SC1=S)NNC(=O)c1cccnc1,"inconclusive: 56.2 µM [inhibitor, partial curve]",
Cc1nc2[nH]c(=S)[nH]c2cc1Br,active: 3.98 µM,
N#CCCN(C(=O)COC(=O)CCc1c[nH]c2ccccc12)c1ccc(F)cc1,"inconclusive: 44.7 µM [inhibitor, partial curve, poor fit]",
C=CCNCCOc1ccc(C(C)(C)c2ccccc2)cc1,"inconclusive: 10 µM [inhibitor, partial curve, poor fit]",
COc1ccccc1NC(=O)c1cc(-c2ccc(C)o2)nc2ccccc12,active: 39.8 µM,
O=C(/C=C/c1ccc([N+](=O)[O-])cc1)N(c1ccccn1)C1CCCCC1,active: 5.62 µM,
CCOc1ccc2nc(N3CCCC(C(=O)NCCCN4C(C)CCCC4C)C3)sc2c1 (centres undefined),active: 39.8 µM,
Cc1cc(C)nc(-n2nc(C)cc2NC(=O)CNCc2ccccc2)n1,"inconclusive: 79.4 µM [inhibitor, partial curve, poor fit]",
COc1cc(/C=N/N2C(C)CCCC2C)cc(Br)c1O (centres undefined),"inconclusive: 7.94 µM [inhibitor, full curve, poor fit]",
O=C(O)C1CCCN1c1nc(-c2ccc(Cl)c(Cl)c2)cc(C(F)(F)F)n1 (centres undefined),,inconclusive: -75.7% [inhibitor] [at 12.7 µM]
O=C(Cc1c(O)c2ccccc2[nH]c1=O)NCc1ccccc1F,active: 70.8 µM,
Cn1c(-c2ccccc2)cnc1NCc1ccc(-c2ccccc2)cc1,active: 11.2 µM,
CC(=O)c1sc(NCc2ccccc2)nc1C,active: 70.8 µM,
O=C(O)C1Nc2c(O)cccc2C2C=CCC12 (centres undefined),active: 10 µM,
O=C(NC1CCCCC1)c1ccccc1NC(=O)C1CC(=O)N(c2ccccc2)C1 (centres undefined),"inconclusive: 10 µM [inhibitor, partial curve, poor fit]",
CCn1c(C2CCN(Cc3ccccc3)CC2)n[nH]c1=S,inactive,
CCN(CC)CCNC(=O)CSc1c2c(nc3cc(Cl)ccc13)CCCC2,"inconclusive: 39.8 µM [inhibitor, partial curve, poor fit]",

SMILES,Potency,"activity, negative = inhibition"
CCOC(=O)/C=C1\SCC(=O)N1CC(=O)NC(C)c1ccc(F)cc1 (centres undefined),inactive,
O=C(Oc1cccnc1)c1ccc([N+](=O)[O-])cc1,active: 10 µM,
CCCC(=O)Nc1ccc2c(c1)nc(CN1CCN(C(=O)OCC)CC1)n2CC,"inconclusive: 31.6 µM [inhibitor, single point]",
COC(=O)c1c(SCC(=O)Nc2cc(C)cc(C)c2)[nH]c2ccccc2c1=O,inactive,
COCCNC(=O)C1CC2Cn3c(nc4cc(Cl)c(Cl)cc43)C2N1C (centres undefined),,inconclusive: -64% [inhibitor]
Cc1c(N=C2NN=C(c3ccc(Cl)cc3)CS2)c(=O)n(-c2ccccc2)n1C,active: 10 µM,
COc1ccc(CN(C(=O)/C=C/C(=O)c2ccc(OC)cc2O)C(C(=O)NC2CCCCC2)c2ccncc2)cc1 (centres undefined),inactive,
S=c1[nH]c2ccc(Cc3ccc4[nH]c(=S)[nH]c4c3)cc2[nH]1,active: 0.282 µM,
COCc1nnc(NS(=O)(=O)c2ccc(Br)cc2)s1,"inconclusive: 10 µM [inhibitor, partial curve, poor fit]",
COc1ccc(OC)c(NC(=O)C2CCC(CNc3c(N4CCC(C)CC4)c(=O)c3=O)CC2)c1 (centres undefined),"inconclusive: 79.4 µM [inhibitor, single point]",
COc1ccc(C(=O)NNC(=O)c2ccc(C(C)(C)C)cc2)cc1,inactive,
Cc1ccc(S(=O)(=O)Cc2cc(F)c([N+](=O)[O-])cc2[N+](=O)[O-])cc1,active: 50.1 µM,
COc1cc(/C=C/C(=O)c2ccc([N+](=O)[O-])o2)ccc1O,,inactive: 22.8% [at 2.33 µM]
COC(=O)c1cccc(Nc2nc(-c3ccncc3)nc3ccccc23)c1,"inconclusive: 56.2 µM [inhibitor, partial curve, poor fit]",
Cc1nnc(SCC2=C(C(=O)O)N3C(=O)C(NC(=O)C(C)n4nc(C(F)(F)F)cc4C)C3SC2)s1 (centres undefined),"inconclusive: 39.8 µM [inhibitor, partial curve, poor fit]",
CCC(OC(=O)CCc1nc2ccccc2[nH]c1=O)C(=O)c1ccccc1 (centres undefined),"inconclusive: 79.4 µM [inhibitor, single point]",
CCOc1ccc(NC(=O)CSc2nnc(-c3ccccc3Cl)n2Cc2ccco2)cc1,"inconclusive: 79.4 µM [inhibitor, single point]",
CCC(=O)NCCC(c1ccco1)c1ccccc1OC (centres undefined),inactive,
COc1ccc(OCC(=O)Nc2ccc3c(c2)nc2n3CCSC2)cc1,active: 2 µM,
O=C(Cc1ccccc1)NCC(=O)Nc1cc(Cl)ccc1Cl,inactive,
O=C(CSc1nc2ccccc2[nH]1)N1CCN(c2ccccc2)CC1,"inconclusive: 89.1 µM [inhibitor, partial curve, poor fit]",
O=[N+]([O-])c1ccc(Oc2ccc(F)cc2Br)c2ccncc12,"inconclusive: 20 µM [inhibitor, single point]",
CCn1c(C)nc2cc(C(=O)N/N=C/c3ccc(OC)c(O)c3)ccc21,"inconclusive: 3.55 µM [inhibitor, single point]",
CCCOc1ccc(N2C(=O)CC(N(Cc3ccco3)C(C)=O)C2=O)cc1 (centres undefined),"inconclusive: 44.7 µM [inhibitor, partial curve, poor fit]",
